According to PubChem BioAssay AID686979 (National Center for Advancing Translational Sciences (NCATS), 2013):
The campaign covered roughly 420,000 compounds. About 50,000 (12%) were called active. The shares of active, inactive and inconclusive entries below differ from those in the screen. The call rests on the fitted dose curve; in most records, active means well fitted inhibition curve with a large enough effect; inconclusive means small, poorly fitted or top-dose-only effect; inactive means flat fitted curve, though single readings scatter. Potencies of inconclusive entries are left out as doubtful fits.

Assay: qHTS for Inhibitors of human tyrosyl-DNA phosphodiesterase 1 (TDP1): qHTS in cells in presence of CPT; further: nearly all actives have a fitted effect of over 55% in size
Details: chicken DT40 Tdp1-/-;hTDP1 cells + 20 nM CPT, ATP luminescence, 48 h; activity change, negative = growth inhibition: at 46.2 µM (top of the series) unless noted
Outline: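 Chicken DT40 Tdp1-/- cells stably complemented with human TDP1 were seeded at 400 cells/well in medium containing 20 nM camptothecin, exposed to pin-transferred compounds, and grown at 37 °C for at least 48 hr. Viability was read as ATP luminescence.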
On the % scale 0 is the no-effect control and ±100 the full control effect; potency means the concentration at half of the fitted maximal effect; tags describe the fitted curve by direction and shape.

Row | SMILES | Potency | activity change, negative = growth inhibition
1 | Cc1ccc(O)c(C(=O)CC(=O)c2cccc(F)c2)c1 | active: 2.31 µM | –
2 | CC(C)[C@H](NC(=O)N1CCn2c1nc1ccccc12)C(=O)NCc1ccccc1Cl | inconclusive [inhibitor, single point] | –
3 | COc1ccc(CN(C)C(=O)Cn2cnc3c(OCc4ccccc4)ncnc32)cc1OC | inconclusive [inhibitor, single point] | –
4 | CCOC(=O)c1cc2c(=O)n3ccccc3nc2n(CCCOC)c1=NC(=O)c1cc2ccccc2o1 | active: 23.1 µM | –
5 | COc1ccc(NC(=O)CC2C(=O)N(C)C(=S)N2Cc2cccs2)cc1 (configuration not stated) | inactive | –
6 | Cc1ccc2oc(=O)c3cnn(CC(=O)N4CCc5ccccc5C4)c3c2c1 | inconclusive [inhibitor, partial curve] | –
7 | CS(=O)(=O)c1cnc(-c2ccccc2)nc1-c1ccc(Cl)c(Cl)c1 | inconclusive [inhibitor, single point] | –
8 | O=C(/C=C/c1ccc2c(c1)OCCO2)c1ccccc1 | inconclusive [inhibitor, single point] | –
9 | COc1cccc(NC(=O)CCN2CCOCC2)c1 | inactive | –
10 | COc1ccc(-c2csc(NC(=S)NC(=O)c3ccco3)n2)cc1Br | active: 10.3 µM | –
11 | O=c1oc2ccc(Cl)cc2cc1-c1nc(-c2cccs2)no1 | inactive | –
12 | CC(=O)c1ccc(N2CCN(C(=O)C(=O)c3cn(CC(=O)N4CCCCCC4)c4ccccc34)CC2)cc1 | active: 23.1 µM | –
13 | CCCCN=Cc1sc2ccc(OCC)cc2c1O | inconclusive [inhibitor, single point] | –
14 | Cc1ccc2c(c1)N(C(C)C(=O)NCCc1ccccc1)C(=O)CO2 (configuration not stated) | inconclusive [inhibitor, single point] | –
15 | Cc1csc(N2CCCC2=O)n1 | inactive | –
16 | CS(=O)(=O)N(CC(=O)N1CCN(c2ccccc2)CC1)C1CCCCC1 | inconclusive [inhibitor, single point] | –
17 | CCc1cc(=O)oc2cc(OC(C)C(=O)NCC(O)c3ccccc3)c(Cl)cc12 (configuration not stated) | inconclusive [inhibitor, single point] | –
18 | CCOC(=O)C1CCN(C(=O)C2CCN(S(=O)(=O)c3ccc4ccccc4c3)CC2)CC1 | inconclusive [inhibitor, partial curve, poor fit] | –
19 | CCOc1ccc(NC(=O)COc2ccc(C(=O)NCc3cccnc3)cc2OC)cc1 | inconclusive [inhibitor, single point] | –
20 | Cc1nn(C)c(C(=O)N/N=C/c2cc3c(cc2Br)OCO3)c1Br | inconclusive [inhibitor, partial curve] | –
21 | NC(=O)c1c(NC(=O)COC(=O)c2ccc(O)c(Cl)c2)sc2c1CCCC2 | active: 25.9 µM | –
22 | Cc1ccc(S(=O)(=O)Oc2ccccc2-c2ccccc2)cc1 | active: 16.4 µM | –
23 | O=C(c1ccc2c(c1)[nH]c(=S)n1c3ccccc3nc21)N1CCN(c2cccc(Cl)c2)CC1 | active: 18.4 µM | –
24 | Cc1ccc(C(=O)NC(C)c2ccc(C)c(C)c2)s1 (configuration not stated) | inconclusive [inhibitor, single point] | –

Row | SMILES | Potency | activity change, negative = growth inhibition
25 | Cc1ccc(NS(=O)(=O)c2sc3ccc(Cl)cc3c2C)cc1 | inconclusive [inhibitor, single point] | –
26 | CC(C)C[C@H](NC(=O)c1[nH]cnc1C(=O)N[C@@H](Cc1ccccc1)C(=O)OCc1ccccc1)C(=O)OC(C)(C)C | active: 20.6 µM | –
27 | O=S1(=O)CCOC[C@H](Cc2ccccc2)N1Cc1cccc(F)c1 | inactive | –
28 | Cc1sc(N/N=C/C=C/c2ccccc2)nc1-c1ccccc1 | inconclusive [inhibitor, single point] | –
29 | Cc1ccc(-n2nc3c(N4CCCC(C(=O)NCc5ccccc5C)C4)nnc(C)c3c2C)cc1 (configuration not stated) | active: 14.6 µM | –
30 | CS(=O)(=O)N1CCC(C(=O)Nc2ccccc2Sc2ccccc2)CC1 | inactive | –
31 | c1csc(CNc2ncncc2-c2ccoc2)c1 | inconclusive [inhibitor, single point] | –
32 | COC(=O)C1CCN(C(=O)COc2cc3sc(C)nc3c3sccc23)CC1 | inconclusive [inhibitor, single point] | –
33 | O=S(=O)(N/N=C/c1cn(Cc2ccccc2)c2ccccc12)c1ccccc1 | inactive | –
34 | COCCNC(=O)C(OC(=O)c1nsc(Cl)c1Cl)C(C)C (configuration not stated) | inactive | –
35 | CN(C)CCCNC(=O)c1cc(Br)ccc1O | inactive | –
36 | Cc1cccc(CN2Cc3cccc4c3[C@H](C=CC4)CC2=S)c1 | inconclusive [inhibitor, single point] | –
37 | CCc1nc2ccc(C(=O)Nc3cccc(OCC(=O)N(C)C)c3)cn2c1N(C=O)Cc1ccc(OC)cc1 | inconclusive [inhibitor, single point] | –
38 | CCCSc1oc(-c2ccco2)nc1S(=O)(=O)c1ccc(C)cc1 | inconclusive [inhibitor, single point] | –
39 | CC(C)=CCc1cc([C@@H]2CC(=O)c3ccc(O)c(CC=C(C)C)c3O2)ccc1O | inconclusive [inhibitor, single point] | –
40 | Cc1ccc(C)c(NC(=O)C(OC(=O)c2ccc(CO)cc2)c2ccccc2)c1 (configuration not stated) | inactive | –
41 | Cn1c(=O)n(C)c2cc(CNCc3ccccc3Cl)ccc21 | inconclusive [inhibitor, single point] | –
42 | CCc1cc(=O)n2[nH]c(C)c(-c3ccc(OC)cc3)c2n1 | inactive | –
43 | O=C(NC(c1ccccc1)c1ccccc1)c1ccccc1 | inactive | –
44 | CN(C)c1ccc(N/C=C/C(=O)C(C)(C)C)cc1 | active: 18.4 µM | –
45 | O=C(Nc1cn(-c2ccccc2)nc1-c1ccc(F)cc1)c1ccccc1 | active: 20.6 µM | –
46 | O=[N+]([O-])c1cc([N+](=O)[O-])c2cc3ccccc3nc2c1 | active: 0.259 µM | –
47 | Cc1ccc(S(=O)(=O)N2c3ccc(S(N)(=O)=O)cc3CC2C)cc1 (configuration not stated) | inconclusive [inhibitor, partial curve] | –
48 | CCc1noc(C)c1C(=O)Nc1ccc(-c2nnc3n2CCCCC3)cc1 | inactive | –

Row | SMILES | Potency | activity change, negative = growth inhibition
49 | O=S(=O)(NCCC1=CCCCC1)c1cccc(Br)c1 | inconclusive [inhibitor, partial curve] | –
50 | Cc1ccc2scc(N3CCCC(C)C3)c(=O)c2c1 (configuration not stated) | inactive | –
51 | CCCC(=O)Nc1ccc(-c2csc(NNC(C)=O)n2)cc1 | – | inconclusive: -30.8% [inhibitor]
52 | COc1ccc(-n2c(SCC(=O)Nc3ccc(Br)cc3)nc(O)cc2=O)cc1 | inactive | –
53 | O=C(c1ccc(Cl)cc1)n1nc(-c2ccccc2)nc1NCc1ccco1 | inactive | –
54 | Cc1ccc(NC(=O)N2CCC(NC(=O)c3cccc(C)c3)CC2)cc1 | inconclusive [inhibitor, full curve, poor fit] | –
55 | CCCn1c(=N)c(C(=O)NC(C)c2ccccc2)cc2c(=O)n3ccccc3nc21 (configuration not stated) | inconclusive [inhibitor, single point] | –
56 | COc1ccc(-n2c(C)cc(C(=O)COC(=O)c3cc(NC(=O)c4cccs4)c(OC)c(OC)c3)c2C)cc1 | inconclusive [inhibitor, single point] | –
57 | O=[N+]([O-])c1ccc(-c2cn(-c3ccc(Cl)cc3)cn2)cc1 | inconclusive [inhibitor, partial curve] | –
58 | O=C(CCSc1nc(-c2ccc3c(c2)OCO3)cc(C(F)(F)F)n1)NCc1ccccc1 | inconclusive [inhibitor, partial curve, poor fit] | –
59 | O=C(C1CCCN(S(=O)(=O)c2cccc3nonc23)C1)N1CCN(c2ccccc2)CC1 (configuration not stated) | inconclusive [inhibitor, single point] | –
60 | COc1ccc(C2=NOC(Cn3nc(C(=O)O)cc3-c3ccccc3)C2)cc1 (configuration not stated) | inactive | –
61 | CC(C)c1ccc(NC(=O)CSC2=Nc3ccccc3C3=NC(CCC(=O)NCc4cccs4)C(=O)N23)cc1 (configuration not stated) | active: 23.1 µM | –
62 | CC1CCN(Cc2c(C(=O)N/N=C/c3ccc(C(C)C)cc3)nnn2-c2nonc2N)CC1 | inconclusive [inhibitor, single point] | –
63 | CN1CCCC(OC(=O)c2cccc(Br)c2)C1 (configuration not stated) | inactive | –
64 | COc1ccc(C(=O)c2ccccc2)cc1Br | inactive | –
65 | Cc1ccn2cc(-c3cccc(S(=O)(=O)N4CC(C)OC(C)C4)c3)nc2c1 (configuration not stated) | inconclusive [inhibitor, single point] | –
66 | Cc1ccc(C(C)C)c(OCC(=O)Nc2cccc(S(=O)(=O)NC3=NCCCCC3)c2)c1 | inconclusive [inhibitor, single point] | –
67 | OC(c1cccc(Cl)c1)c1ncc(-c2ccc3ccccc3c2)[nH]1 (configuration not stated) | inconclusive [inhibitor, single point] | –
68 | Cn1cccc1C(=O)NC(=O)CSc1nc2ccccc2s1 | inconclusive [inhibitor, partial curve, poor fit] | –
69 | CCC1CCCCN1CCCNC(=O)c1csc2c1CCCCC2 (configuration not stated) | inconclusive [inhibitor, single point] | –
70 | Cc1c(Cl)cccc1-n1ncc(C(=O)NC2CCCC2)c1C1CCN(C(=O)OC(C)(C)C)CC1 | inconclusive [inhibitor, single point] | –
71 | Cc1nccn1C[C@@H]1CCc2c(c3ccccc3n2C)C1=O | inconclusive [inhibitor, single point] | –
72 | CC(C)(C)NC(=O)NC(=O)CN1CCN(Cc2ccccc2)CC1 | inconclusive [inhibitor, single point] | –
